Test results published in the RNAGym collection of RNA variant scans (doi:10.1073/pnas.2313332121).
This sample is rich in variants without activity.

B1: TPR 5TU (parent)
chain: GGAUCUUCUCGAUCUAACAAAAAAGACAAAUCUGCCACAAAGCUUGAGAGCAUCUUCGGAUGCAGAGGCGGCAGCCUUCGGUGGCGCGAUAGCGCCAACGUUCUCAACUAUGACACGCAAAACGCGUGCUCCGUUGAAUGGAGUUUAUCAUG

Variants of: B1
Assay: polymerase ribozyme fitness, log enrichment relative to wild type (log ratio); higher = more active; in vitro selection for triplet polymerase activity
Outline: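 PCR was used to build mutant libraries for each subunit of a heterodimeric triplet polymerase ribozyme, which were then transcribed. A single in vitro selection round, in triplicate, used a frozen incubation at −7 °C and recovered extended constructs by gel excision, streptavidin beads and RT-PCR. Fitness is the logarithm of genotype enrichment relative to wild-type enrichment, averaged over replicates with inverse-variance weights. The logarithm is base 2, and after Illumina sequencing only genotypes with ≥10 input reads and ≥1 read per output were kept.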

Row | Variant | polymerase ribozyme fitness (log ratio)
1 | GGAUCUUCUCGAUCUAGCAAGAAAGACAAAUCUGCCACAAAGCUUGAGAGCAUCUUCGGAUGCAGAGGCGGCAGCCUUCGGUGGCGCGACAGCGCCAACGUUCUCAACUAUGACACGCAAAACGCGUGCUCCGUUGAAUGGAGUUUCUCUUG | ≤ -4.2
2 | GGAUCUUCUCGAUCUAGCAAUACAGACAAUUCUGCCACAAAGCUUGAGAGCAUCUGCGGAUGCAGAGGCGGCAGUCUUCGGUGGCGCGAUAGCGCUAACGUUCUCAACUAUGACACGCAAAACGCGUGCUCCGUUGAAUGGAGUUUAUCAUG | ≤ -4.2
3 | GGAUCUUCUCGAUCUAGCAAAGAAGACAAAUCUGCCACAAAGAUUGAGUGCAUCUUUGGAUGCAGAGGCGUCAGCCUUCGGUGGCGCGAUAGCGCCAACGUUCUCAACUAUGACACGCAAAACGCGUGCUCCGUUGAAUGGAGUUUAUCAUG | ≤ -4.2
4 | GGAUCUUCUCGAUCUAGCAAAGAAGACAAAUCUGCCACAAAGCUUGAGAGCAUCUACGGAUGCAGAGGCGGCAGCCUUCGGUGGCGCGAUAGCGCCAACGUUCUCAACUAUGACACGCAAAACGCGUGCUCCGUUGAAUGGAGUUUAUCAUG | 0.0483
5 | GGAUCUUCUCGAUCUAGCAAAACAGACAAAUCUGCCACAAAGCUUGAGAGCAUCUUUGGAUGCAGAGGCGGCAGCCUUUGGUGGCGCGAUAGCGCCAACGUUCUCAACUAUGACACGCAAAACGCGUGCUCCGUUGACUGGAGUUUAUCAUG | ≤ -4.2
6 | GGAUCUUCUCGAUCUAGCAAAAAGGACAAAUCUGCCACAACGCUUGAGAGCAUCUUCGGAUGCAGAGGCGGCAGCCUUCAGUGGCGCGAUAGCGCUAAGGGUCUCAACUAUGACACGCAAAACGCGUGCUCCGUUGAUUGGAUUUUAUCAUG | ≤ -4.2
7 | GGAUCUUCUCGAUCUAGCAAAAAUGACAAAUCUGCCACAAAGCUUGAGAGUAUCUUCGGAUGCAGAGGCGGCAGCCUUCGGUGGCGCGAUUGCGCCAACGUUCUCAACUAUGACACGCAAAAAGCGUGCUCCGUUGAAUGGAGUUUAUCAUG | ≤ -4.2
8 | GGAUCUUCUCGAUCUAGCAAAAAAGCCAAAUUUGCCACAAAGCUUGAGAGCAUCUUCGAAUGCAGAGGCGGCAGUCUUCGGUGGCGCGAUAGCGCCAACGUUCUCAACUAUGACACGCAAAACGCGUGCUCCGUUGAAUGGAGUUUAUCAUG | ≤ -4.2
9 | GGAUCUUCUCGAUCUAGCAAAAAAGGCAAAUCUGCCACAAAGCUUGAGACCAUCUUCGGAUGCAGAGGCGGCUACGUUCGGUGGCGCGAUAGCGCCAACGUUCUCAACUAUGACACGCAAAACGCGUGCUCCGUUGAAUGGAUUUUAUCAUG | ≤ -4.2
10 | GGAUCUUCUCGAUCUAGCAAAAAAGACCAAUCUGACACAAAGCUUGAGAGCAUCUUCGGAUGCAGAGGCGGCAGCCUUCGGUGGCGCGAUAGCGCCAACGUUCUCAACUAUGACACGCAAAACGCGUGCUCCUUUGAAUGCAGUUUAUCAUG | ≤ -4.2
11 | GGAUCUUCUCGAUCUAGCAAAAAAGACCAAUCUGCCACAAAGCUUGAGAGCAUCUUCGGAUUCUGAGGCGGCAGCUUUCGGUGGCGCGAUAUCGCCAACGUUCUCAACGAUGACACGCCAGACGCGUGCUACGUUGAAUGGAGUUUAUCAUG | ≤ -4.2
12 | GGAUCUUCUCGAUCUAGCAAAAAAGACCAAUCUGCCACAAAGCUUGAGAGCAUCGUCGGAUGCAGAGGCGGCAGCCUUCGGUGGCGCGAUAGCGCCAAGGUUCUCAACUAUGACACGCAAAACGCGUGCUCCGUUGAAUGAAGUUUAUAAUG | ≤ -4.2
13 | GGAUCUUCUCGAUCUAGCAAAAAAGACUAAUCUGCCACAAAGCUUGAGACCAUCUUCGGAUGCAGAGGCGGCAGCCUUCGGUGGCGCGAUAGCGCCAGCGUUCUCAACUAUGACCCGCAAGACGCGUGCUCCGUUGAAUGGAGUUUAUCAUG | ≤ -4.2
14 | GGAUCUUCUCGAUCUAGCAAAAAAGACACAUCUGCCACAAAGCUUGAGAGCAUCUUCGGAUGCAGAGGCGGCAGUCUUCGGUGGCGCGAUAACGCCAACGUUCUCAACUAUGACACGCAAAACGCGUGCUCCGUUGAAUCGAGUUUAUCAUG | ≤ -4.2
15 | GGAUCUUCUCGAUCUAGCAAAAAAGACAGAUCUGCCACAAAGCUUGAGAGCAUCUUCGGAUGCAGAGGCGGCAGCCUUCGGUGGCGCGAUAGCGCGAACGUUCUCAACUAUGACACGCAAAACGCGUGCUCCGUUGAAUGGAGUUUAUCAUG | ≤ -4.2
16 | GGAUCUUCUCGAUCUAGCAAAAAAGACAUCUCUGCCACACAGCUUGAGAGCAUCUUCGUAUGCAGAGGCGGCAGCCUUCGGUGGCGAGAUAGCGCCAACGUUCUCAACUAGGACACGCAAAACGCGUGCUCCGUUGAAUGGAGUUUAUCAUG | ≤ -4.2
17 | GGAUCUUCUCGAUCUAGCAAAAAAGACAAGUCUGCCACAAAGCUUGAGAGUAUCUUCGGAUGCAGAGACGGCAGCCUUCGGUGGCGCGUUAGCGCCAACGUUCUCAACGAUGACACGCAAAACGCGUGCUCCGUUGAAUGGAGUUUAUGAUG | ≤ -4.2
18 | GGAUCUUCUCGAUCUAGCAAAAAAGACAAAUCUGCCCCAAAGUUUGAGAGCAUCUUCGGAUGCAGAGGCGGCAGCCUUCGGUGGGGCGAUAGCGCCAACGUUCUCAACUAUGACACGCAAAACGCGUGCUCCGUUGAAUGGAGUUUUUCACG | ≤ -4.2
19 | GGAUCUUCUCGAUCUAGCAAAAAAGACAAAUCUGCCGCAGAGCUUGAGAGCAUCUUCGGAUGCAGAGGCGGCAGCCUUCGGUGGCGCGAUAGCGACAACGUUCUCAACUAUGACACGCACAACGCGUGUUCCGUUGAAUGGAGUUUAUCAUG | ≤ -4.2
